In the supplement of paper PMC10322689:
Where “and” joins values, the source holds several entries; their conditions need not be identical. Equal values may be shown once. ± gives the standard deviation of the averaged measurements. The list shows a part of the results. Single values are uncertain, as repeats are few or missing.

The compounds below were run on mouse mesenchymal chondrosarcoma cells (HEY1-NCOA2) (assay: XTT absorbance relative to DMSO control (cell viability) (fraction of DMSO control); higher = more viable cells / less growth inhibition).
`CCCCCCCCCCCCCCOc1ccc(C(=O)O)o1` showed an XTT absorbance of 0.961.
In the case of `CNC(=N)NCCC[C@H](N)C(=O)O`, the XTT absorbance is reported as 0.901.
With `N#CC(=C(/N)Sc1ccccc1N)/C(C#N)=C(/N)Sc1ccccc1N` the XTT absorbance was 0.871 and 0.838.
`CN(C)CC(=O)Nc1ccc2[nH]c(=O)c3ccccc3c2c1` gave an XTT absorbance of 0.92.
Work on `Cc1ncc2ccccc2c1C#N` [4-cyano-3-methylisoquinoline] yielded an XTT absorbance of 0.941.
In the case of `N#C/C(=C(/N)Sc1ccccc1N)c1cccc(C(O)c2ccncc2)c1` (stereo unspecified) [MEK inhibitor I], the XTT absorbance is reported as 0.892.
Compound `CC(ONC(=O)c1cc(C(F)(F)F)cc(C(F)(F)F)c1)C(=O)Nc1ccc(Cl)cc1` (stereo unspecified) has an XTT absorbance of 1.01.
`O=c1c(-c2ccc(O)cc2)coc2cc(O)cc(O)c12` [Genistein] was tested, and the XTT absorbance was 0.885.
Work on `O=C1Cc2c([nH]c3ccc(Br)cc23)-c2ccccc2N1` [Kenpaullone] yielded an XTT absorbance of 0.882 ± 0.14.
With `CCCCCCCCCCC[C@@H](C[C@@H]1OC(=O)[C@H]1CCCCCC)OC(=O)[C@H](CC(C)C)NC=O` [orlistat] the XTT absorbance was 0.983.
For `NC(=O)c1cccc2cn(-c3ccc([C@@H]4CCCNC4)cc3)nc12` [MK-4827 (Niraparib)], the XTT absorbance was 0.86.
`CC(C)C[C@@H](C=O)NC(=O)[C@H](CC(C)C)NC(=O)[C@H](CC(C)C)NC(=O)OCc1ccccc1` was tested, and the XTT absorbance was 0.133.
`CO[C@H]1C[C@@H]2CC[C@@H](C)[C@@](O)(O2)C(=O)C(=O)N2CCCC[C@H]2C(=O)O[C@H]([C@H](C)C[C@@H]2CC[C@@H](OCCO)[C@H](OC)C2)CC(=O)[C@H](C)/C=C(\C)[C@@H](O)[C@@H](OC)C(=O)[C@H](C)C[C@H](C)/C=C/C=C/C=C/1C` [everolimus] showed an XTT absorbance of 0.799.
`c1ccc2c(-c3cnn4cc(-c5ccc(N6CCNCC6)cc5)cnc34)ccnc2c1` showed an XTT absorbance of 0.743.
For `O=c1oc2c(O)c(O)cc3c(=O)oc4c(O)c(O)cc1c4c23` [Ellagic acid], the XTT absorbance was 0.97.
In the case of `CC#C[C@]1(O)CC[C@H]2[C@@H]3CCC4=CC(=O)CCC4=C3[C@@H](c3ccc(N(C)C)cc3)C[C@@]21C` [Mifepristone], the XTT absorbance is reported as 0.973.
For `O=[N+]([O-])c1ccc(-c2nc(-c3ccc(F)cc3)c(-c3ccncc3)[nH]2)cc1`, the XTT absorbance was 0.846.
Compound `CC(C)n1nc(-c2cc3cc(O)ccc3[nH]2)c2c(N)ncnc21` [Torkinib] has an XTT absorbance of 0.406.
With `NC(=O)c1ccc2nc(-c3ccc(Oc4ccc(Cl)cc4)cc3)[nH]c2c1` [Chk2 inhibitor II] the XTT absorbance was 1.02.
For `Cc1nc2c(O)cccc2c(=O)[nH]1`, the XTT absorbance was 0.857.
With `CCN(CC)CCCCNc1ncc2cc(-c3cc(OC)cc(OC)c3)c(NC(=O)NC(C)(C)C)nc2n1` the XTT absorbance was 0.927.
`O=c1cc(-c2ccccc2)oc2cc(O)c(O)c(O)c12` [Baicalein] was tested, and the XTT absorbance was 0.927.
In the case of `O=C(c1cc(Cc2n[nH]c(=O)c3ccccc23)ccc1F)N1CCN(C(=O)C2CC2)CC1` [Olaparib], the XTT absorbance is reported as 1.04.
In the case of `O=c1cc(N2CCOCC2)oc2c(-c3ccccc3)cccc12`, the XTT absorbance is reported as 0.863 and 0.767.
`CCOC(=O)C1=C(N)Oc2ccc(Br)cc2C1C(C#N)C(=O)OCC` (stereo unspecified) showed an XTT absorbance of 1.02.
Work on `CC(=O)O[C@H]1C(=O)[C@@]2(C)[C@H]([C@H](OC(=O)c3ccccc3)[C@]3(O)C[C@H](OC(=O)[C@H](O)[C@@H](NC(=O)c4ccccc4)c4ccccc4)C(C)=C1C3(C)C)[C@]1(OC(C)=O)CO[C@@H]1C[C@@H]2O` [Paclitaxel] yielded an XTT absorbance of 0.6.
With `COc1cc2ncnc(Nc3ccc(NC(=O)c4ccccc4)cc3)c2cc1OC` [Aurora kinase inhibitor II] the XTT absorbance was 0.971.
For `CC[C@H](C)C(=O)O[C@H]1C[C@@H](C)C=C2C=C[C@H](C)[C@H](CC[C@@H]3C[C@@H](O)CC(=O)O3)[C@H]21` [Lovastatin], the XTT absorbance was 0.826.
Work on `O=C1NC(=O)c2c1c1c3ccccc3[nH]c1n1cncc21` [isogranulatimide] yielded an XTT absorbance of 1.01.
Work on `CS(=O)(=O)c1ccc(C(=O)Nc2ccc(Cl)c(-c3ccccn3)c2)c(Cl)c1` [Vismodegib] yielded an XTT absorbance of 1.01.
`COc1cc2c(cc1OC)-c1[nH]nc(Nc3cccc(F)c3)c1C2` [PDGF receptor tyrosine kinase inhibitor IV] was tested, and the XTT absorbance was 0.457.
Work on `COc1cc2/c(=N/c3ccc(Br)cc3F)nc[nH]c2cc1OCC1CCN(C)CC1` [Vandetanib] yielded an XTT absorbance of 0.805.
`C[C@]1(c2nc3c(C(N)=O)cccc3[nH]2)CCCN1` [ABT-888 (Veliparib)] was tested, and the XTT absorbance was 0.98.
In the case of `C1=Cc2nc1cc1nc(c(-c3ccccc3)c3ccc(cc4ccc([nH]4)c2-c2ccccc2)[nH]3)C=C1`, the XTT absorbance is reported as 1.01.
`CNCc1ccc(-c2[nH]c3cc(F)cc4c3c2CCNC4=O)cc1` showed an XTT absorbance of 0.905.
With `Cc1cc(N)c2ccccc2[n+]1CCCCCCCCCC[n+]1c(C)cc(N)c2ccccc21` [Dequalinium] the XTT absorbance was 1.13.
